Results: patent US10251952B2, “Humanized anti-tau(pS422) antibody brain shuttles and use thereof” (Hoffmann-La Roche Inc., priority 2014, dated 2019)

B1: TfR2: antibody binding the transferrin receptor with reduced affinity (WO 2012/075037); LC SEQ ID NO: 137 (antibody)
heavy: EVQLQQSGPELVKPGASVKMSCKASGYTFTSYVMHWVKQKPGQGLEWIGYVNPYNDDTKYNEKFRGKATLTSDKSSSTAYMELSSLTSEDSAVYYCARSYYYYSMDNWGQGTSVTVSS[letters of human IgG1 constant region omitted]GGGGSGGGGSQVQLVESGGGLVKPGGSLRLSCAASGFTFSDYAMSWIRQAPGKCLEWVSSINIGATYIYYADSVKGRFTISRDNAKNSLYLQMNSLRAEDTAVYYCARPGSPYEYDKAYYSMAYWGQGTTVTVSSGGGGSGGGGSGGGGSDIQMTQSPSSLSASVGDRVTITCRASQDIKNYLNWYQQKPGKAPKLLIYYSSTLLSGVPSRFSGSGSGTDFTLTISSLQPEDFATYYCQQSITLPPTFGCGTKVEIK
light: QIVLTQSPAIMSASPGEKVTVTCSASSSIRYMHWYQQKPGTSPKRWIYDTSELASGVPARFSGSGSGTSYSLTINSMEAEDAATYYCHQRSSYPFTFGGGTKLEIKRTVAAPSVFIFPPSDEQLKSGTASVVCLLNNFYPREAKVQWKVDNALQSGNSQESVTEQDSKDSTYSLSSTLTLSKADYEKHKVYACEVTHQGLSSPVTKSFNRGEC
modifications: HC anti-TfR2 antibody conjugated to scFv anti- digoxigenin antibody fragment; LC anti-TfR2 antibody
B2: TfR2-Bio: bispecific shuttle module: anti-TfR2 antibody with scFv anti-biotin; SEQ ID NO: 137 and 139 (protein)
light: B1 light
heavy: MGWSCIILFLVATATGVHSEVQLQQSGPELVKPGASVKMSCKASGYTFTSYVMHWVKQKPGQGLEWIGYVNPYNDDTKYNEKFRGKATLTSDKSSSTAYMELSSLTSEDSAVYYCARSYYYYSMDNWGQGTSVTVSS[letters of human IgG1 constant region omitted]GGGGSGGGGSDIQMTQSPSSLSASVGDRVTITCRASGNIHNYLSWYQQKPGKVPKLLIYSAKTLADGVPSRFSGSGSGTDFTLTISSLQPEDVATYYCQHFWSSIYTFGCGTKLEIKRGGGGSGGGGSGGGGSGGGGSQVQLVQSGAEVKKPGSSVKVSCKSSGFNNKDTFFQWVRQAPGQCLEWMGRIDPANGFTKYAQKFQGRVTITADTSTSTAYMELSSLRSEDTAVYYCARWDTYGAAWFAYWGQGTLVTVSS
modifications: LC anti-TfR2 antibody; HC anti-TfR2 antibody conjugated to scFv anti- biotin antibody fragment
B3: TfR2-Dig: bispecific shuttle module: anti-TfR2 antibody with scFv anti-digoxigenin; SEQ ID NO: 137 and 138 (protein)
light: B1 light
heavy: B1 heavy
modifications: LC anti-TfR2 antibody; HC anti-TfR2 antibody conjugated to scFv anti- digoxigenin antibody fragment

Tests used:
[1] = test system: hCMEC/D3 cells; test: transwell cell binding and release of shuttle modules, IgG ELISA; assay type: cell-based; conditions: for binding to the cells: 1 hour at 37 °C apically; for release to apical or basolateral compartments: over time after washing
Excerpt: We used brain endothelial cells (hCMEC/D3) to investigate cell binding and transcytosis of the shuttle modules as reported herein. Previous studies (Crepin et al., 2010; Lesley et al., 1989, WO 2012/075037, WO 2014/033074) reported that valency and affinity of TfR binding antibodies influence efficacy of binding to, transcytosis though, and release from endothelial cells of the blood brain barrier. To investigate cell binding and transcytosis in hCMEC/D3, hCMEC/D3 cells cultured on filter inserts were incubated apically with the bispecific antibody or parent antibody (without hapten-binding scFvs as controls) for 1 hour at 37° C. Cell monolayers were washed at room temperature in serum-free medium apically (400 μl) and basolaterally (1600 μl) three times for 3-5 minutes each. All wash volumes were collected to monitor efficiency of removal of the unbound ligand or antibody. Pre-warmed medium was added to the apical chamber and the filters transferred to a fresh 12 well plate (blocked overnight with PBS containing 1% BSA) containing 1600 μl pre-warmed medium. At this point, cells were lysed in 500 μl RIPA buffer (Sigma, Munich, Germany, #R0278) in order to determine specific uptakes. The remaining filters were incubated at 37° C. and samples collected at various time points to determine apical and/or basolateral release. The content of antibody in the samples was quantified using a highly sensitive IgG ELISA.

[2] = target: transferrin receptor (Homo sapiens, UniProt P02786); conditions: see WO 2012/075037; cited from earlier work
Chain of transferrin receptor (P02786 whole entry): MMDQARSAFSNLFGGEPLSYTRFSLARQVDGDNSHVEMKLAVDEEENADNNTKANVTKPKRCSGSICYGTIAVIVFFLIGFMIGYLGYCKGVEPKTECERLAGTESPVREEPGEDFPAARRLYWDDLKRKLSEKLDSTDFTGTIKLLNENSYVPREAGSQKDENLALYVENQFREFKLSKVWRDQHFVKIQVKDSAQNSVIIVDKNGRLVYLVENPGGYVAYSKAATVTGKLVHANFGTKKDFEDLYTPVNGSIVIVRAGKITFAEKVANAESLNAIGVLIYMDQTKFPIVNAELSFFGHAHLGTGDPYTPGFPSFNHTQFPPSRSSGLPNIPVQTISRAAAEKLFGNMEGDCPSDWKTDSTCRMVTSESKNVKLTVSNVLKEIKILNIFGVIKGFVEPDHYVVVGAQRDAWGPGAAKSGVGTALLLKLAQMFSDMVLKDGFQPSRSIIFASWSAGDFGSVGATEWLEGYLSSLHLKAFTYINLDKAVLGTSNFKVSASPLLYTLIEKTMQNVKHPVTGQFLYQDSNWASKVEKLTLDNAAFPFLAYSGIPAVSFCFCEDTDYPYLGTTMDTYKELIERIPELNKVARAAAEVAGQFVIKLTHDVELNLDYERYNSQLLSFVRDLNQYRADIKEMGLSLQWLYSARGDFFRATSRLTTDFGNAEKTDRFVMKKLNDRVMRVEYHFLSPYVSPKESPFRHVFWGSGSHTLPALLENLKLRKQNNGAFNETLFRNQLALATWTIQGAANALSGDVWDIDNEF

Row | Molecule | binding to the cells [1] | release to apical or basolateral compartments [1] | affinity to the transferrin receptor [2]
1 | B1 | efficiently bound to the cells | subsequently released over time to apical or basolateral compartments | reduced affinity
2 | B2 | efficiently bound to the cells | released to apical or basolateral compartments to the same degree as the parent antibody | –
3 | B3 | efficiently bound to the cells | released to apical or basolateral compartments to the same degree as the parent antibody | –
